# Laboratory results as given in paper PMC4336329 (PLoS ONE, 2015).
# Out of some 310,000 compounds screened, about 2,200 (0.71%) showed an effect of 50% or more. The effect is printed as a negative number. Some of the results follow. Where a SMILES comes first, the peptide text is derived from it. The star is where a group is joined. Boc = CC(C)(C)OC(=O)*; Bn = c1ccc(C*)cc1
# Target: human ether-à-go-go-related gene (hERG) potassium channel (human, UniProt Q12809)
# Experiment: primary screen, population patch clamp on CHO cells stably expressing hERG
# Sequence of human ether-à-go-go-related gene (hERG) potassium channel (Q12809 whole entry, looked up): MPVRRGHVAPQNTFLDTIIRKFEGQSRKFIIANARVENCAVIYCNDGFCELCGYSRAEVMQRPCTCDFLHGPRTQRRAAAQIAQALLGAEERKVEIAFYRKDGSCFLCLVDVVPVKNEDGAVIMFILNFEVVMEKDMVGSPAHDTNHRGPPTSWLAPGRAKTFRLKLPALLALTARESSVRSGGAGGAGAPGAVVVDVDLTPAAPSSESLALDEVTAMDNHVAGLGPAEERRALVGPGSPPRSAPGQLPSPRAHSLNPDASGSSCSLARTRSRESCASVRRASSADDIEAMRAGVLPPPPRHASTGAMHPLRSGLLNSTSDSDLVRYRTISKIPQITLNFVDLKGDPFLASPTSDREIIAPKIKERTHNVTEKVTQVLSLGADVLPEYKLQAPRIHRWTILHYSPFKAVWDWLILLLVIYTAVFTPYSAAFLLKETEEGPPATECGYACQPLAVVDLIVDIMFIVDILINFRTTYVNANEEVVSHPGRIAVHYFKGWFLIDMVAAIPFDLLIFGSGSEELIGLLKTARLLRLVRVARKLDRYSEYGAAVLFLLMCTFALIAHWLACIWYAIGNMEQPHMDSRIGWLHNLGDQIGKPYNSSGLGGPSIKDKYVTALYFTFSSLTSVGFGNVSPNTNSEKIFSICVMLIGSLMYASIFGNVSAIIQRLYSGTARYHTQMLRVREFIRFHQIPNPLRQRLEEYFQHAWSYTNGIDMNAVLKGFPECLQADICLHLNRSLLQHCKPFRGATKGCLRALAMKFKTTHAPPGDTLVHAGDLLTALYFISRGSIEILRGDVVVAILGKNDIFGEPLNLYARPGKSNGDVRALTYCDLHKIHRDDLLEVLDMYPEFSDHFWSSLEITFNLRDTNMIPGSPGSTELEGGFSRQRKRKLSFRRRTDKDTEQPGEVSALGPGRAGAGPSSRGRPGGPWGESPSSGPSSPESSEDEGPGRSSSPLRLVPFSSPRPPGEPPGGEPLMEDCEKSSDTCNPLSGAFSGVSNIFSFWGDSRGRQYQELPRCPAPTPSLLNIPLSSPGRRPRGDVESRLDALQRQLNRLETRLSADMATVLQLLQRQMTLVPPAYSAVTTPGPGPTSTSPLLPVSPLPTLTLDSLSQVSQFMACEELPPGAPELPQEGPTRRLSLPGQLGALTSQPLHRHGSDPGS
row,SMILES,"hERG current change (%, negative = inhibition) at 1uM"
1,CCC(=O)N1CCc2cc(Br)cc(S(=O)(=O)NCCN3CCCCC3C)c21 (stereo not drawn),10.2%
2,O=C(Cn1nc(-c2cccc(Cl)c2)ccc1=O)Nc1ccccc1Br,5.64%
3,Cc1ccc(C2CC(c3ccc(Cl)cc3)=NNC2=O)cc1 (stereo not drawn),-7.36%
4,CCCCN(CC)S(=O)(=O)N1CCC(C(=O)NCCCN2CCOCC2)CC1,13.1%
5,Cc1ccc(-c2ccc(SCC(=O)Nc3cc(C)on3)nn2)cc1,3.03%
6,CCCc1cc(=O)oc2cc3oc(C)c(C)c3cc12,-4.03%
7,CSCc1ccc(C(=O)Nc2ccc(C(N)=O)cc2)cc1,8.09%
8,O=S(=O)(NCC1CCCO1)c1ccc(-c2ccc(S(=O)(=O)NCC3CCCO3)cc2)cc1 (stereo not drawn),13.9%
9,Cc1cc(C(=O)NNC(=O)COc2ccccc2Cl)n[nH]1,8.75%
10,O=c1[nH]c(=S)[nH]c(O)c1N=Nc1ccc(OC(F)F)cc1,6.59%
11,COc1cnc(-c2ccccc2)c(-c2ccccc2)n1,9.41%
12,Cc1ccccc1N1C(=O)CSC1=C(C#N)C#N,8.65%
13,O=C(c1ccco1)N1CCN(c2ncnc3scc(-c4ccc(F)cc4)c23)CC1,5.15%
14,O=[N+]([O-])c1ccc(NC(=S)N2CCOCC2)cc1,-6.23%
15,CCCC(=O)Nc1nc2c(s1)COc1ccccc1-2,18.2%
16,CCCS(=O)(=O)N1CCCC(C(=O)NCCCN2CCN(c3ccccc3F)CC2)C1 (stereo not drawn),2.15%
17,O=c1cccc2n1CC1CC2CN(Cc2c(Cl)cccc2Cl)C1 (stereo not drawn),-19%
18,COC(=O)C1C(=O)OC(C)(C)C1C(C)C(=O)c1ccccc1 (stereo not drawn),15.2%
19,Cc1ccc(S(=O)(=O)N2CCN(c3ccc([N+](=O)[O-])c4cccnc34)CC2)cc1,7.53%
20,CCOc1ccc(NCc2cc3cc(OC)ccc3[nH]c2=O)cc1,5.07%
21,COc1ccc(OC(=O)COc2cccc(C)c2)cc1,12.9%
22,Cc1oc2ccc(OCc3ccccc3F)cc2c1C(=O)O,15.7%

row,SMILES,"hERG current change (%, negative = inhibition) at 1uM"
1,Cc1ccc(-c2nc(N3CCN(C)CC3)c3ccccc3n2)cc1.Cl,3.62%
2,CCN(CC)CCOC(=O)c1c(C)oc2ccc(O)cc12.Cl,-5.37%
3,Cc1ccc(N(CC(N)=O)C2SC(=O)N(C)C2=O)cc1 (stereo not drawn),14.4%
4,Cc1cc(C)c2cc(C#N)c(N3CCCC3)nc2c1,2.26%
5,COc1ccc(-c2c(C(=O)O)nc3ccccc3c2C(=O)O)cc1,5.08%
6,Clc1cccc(Sc2ccc(-c3ccccn3)s2)c1,19.1%
7,COc1ccccc1N1CC(C(=O)Nc2ccccc2N2CCCC2)CC1=O (stereo not drawn),15.1%
8,CC(=O)Nc1nc(S(=O)(=O)c2ccc(C)cc2)c(Cl)s1,-0.686%
9,COC(=O)C1=C(C(=O)OC)[C@@H]2N(C)c3ccc(OC)cc3[C@@]23C[C@@H](C(=O)OC)N(S(=O)(=O)c2ccc(OC)cc2)C3=N1,6.8%
10,Cc1cc(=O)oc(C)c1C(=O)Nc1ccccc1F,7.03%
11,CCOc1ccc(OCC)c(NS(=O)(=O)c2ccc3c(c2)CCN3C(=O)C2CCC2)c1,0.173%
12,COC(=O)CSc1nc(N2CCOCC2)c2c(c1C#N)CC(C)(C)N(C)C2,8.17%
13,COc1ccc(OC)c(N(CC(=O)NCCc2ccc(OC)c(OC)c2)S(=O)(=O)c2ccccc2)c1,4.57%
14,O=C(c1cccc(N2C(=O)C3CC=CCC3C2=O)c1)N1CCCCCC1 (stereo not drawn),-0.233%
15,COc1ccc(NC(=O)CN2CCN(CC(=O)Nc3ccc(OC)cc3)CC2)cc1,-85.6%
16,Cc1nnsc1C(=O)Nc1cccc(Cl)c1Cl,-1.01%
17,Cc1ccc(-n2cc[nH]c2=S)cc1C,17.6%
18,O=C(N/C(=C/C=C\c1ccccc1)C(=O)N1CCOCC1)c1ccc(Br)cc1,-19.1%
19,Cc1onc(-c2ccccc2Cl)c1C(=O)N1CCCCC1C(=O)O (stereo not drawn),14.6%
20,COc1ccc(-c2[nH]ncc2CNC(C)Cc2cccc(C)n2)cc1F (stereo not drawn),15%
21,COc1cc(NS(C)(=O)=O)ccc1Nc1c2ccccc2nc2ccccc12.Cl,-59.7%
22,O=C(O)c1cc(-c2cccc([N+](=O)[O-])c2)nc2ccccc12,0.161%

row,SMILES,"hERG current change (%, negative = inhibition) at 1uM"
1,Clc1ccc(CSc2ncnc3nc[nH]c23)cc1,9.25%
2,CC(=O)NC(CC(=O)O)c1ccccc1 (stereo not drawn),12.8%
3,CC(C(=O)Nc1ccc(C(=O)O)cc1)N1C(=O)c2ccccc2C1=O (stereo not drawn),1.79%
4,CN(CCc1ccccn1)C(=O)Nc1ccc(Cl)cc1,10.3%
5,CC(=O)c1c(C)n(Cc2ccccc2Cl)c2ccc(O)cc12,13.9%
6,COc1ccc(C)cc1NC(=O)CN(C)S(=O)(=O)c1cnc[nH]1,-4.88%
7,O=C(Cn1nc(C(F)(F)F)c2c1CCCC2)NCCN1CCOCC1,2.39%
8,Cc1cccc(C(=O)N2CCN(c3ccc([N+](=O)[O-])c(NCc4ccco4)c3)CC2)c1,2.94%
9,CC(=O)N1c2ccc(S(=O)(=O)N3CCC(C(=O)N4CCN(c5ccccc5)CC4)CC3)cc2CC1C (stereo not drawn),-11.4%
10,C=CCNC(=O)/C(C#N)=C/c1c(N2CC(C)OC(C)C2)nc2ccccn2c1=O (stereo not drawn),14.4%
11,Cn1c(=O)c2c(ncn2CCc2ccccc2)n(C)c1=O,15.6%
12,COc1ccc(-c2ccc(=O)n(Cc3ccc([N+](=O)[O-])cc3)n2)cc1,-5.51%
13,C=CCNC(=S)N/N=C/c1ccc(-c2ccc(Br)cc2)o1,13.3%
14,NC1=NC(=O)/C(=C/c2ccc(-c3ccc(S(N)(=O)=O)cc3)o2)S1,12.5%
15,CCOc1ccccc1NC(=O)C(OC(=O)c1ccccc1NS(=O)(=O)c1cccs1)c1ccccc1 (stereo not drawn),14.6%
16,COC(=O)c1cc(NC(=O)C2CCCN(S(=O)(=O)c3c(C)n[nH]c3C)C2)cc(C(=O)OC)c1 (stereo not drawn),11.1%
17,N=c1c2c(ncn1CCCO)Oc1c(ccc3ccccc13)C2c1ccccc1 (stereo not drawn),-20.5%
18,CCOc1ccc(N(CC(=O)NC2CCCC2)C(=O)CCCC(=O)Nc2ccccn2)cc1,3.86%
19,O=C(Nc1ccccc1)c1cnc2n(c1=O)CCS2,3.96%
20,O=C(NCc1ccco1)/C(=C\c1cccnc1)NC(=O)c1ccccc1F,-37%
21,CC(C)CC(NC(=O)C(CC(C)C)NC(=O)C(Cc1ccc(OCc2ccccc2)cc1)NC(=O)OC(C)(C)C)C(N)=O (stereo not drawn) (Boc-Tyr(Bn)-Leu-Leu-NH2; configuration not given here),14.7%
22,COC(=O)C(NC(=O)c1ccco1)(Nc1ccc(Br)cn1)C(F)(F)F (stereo not drawn),5.29%

row,SMILES,"hERG current change (%, negative = inhibition) at 1uM"
1,Cc1csc(NC(=O)C2C3C=CC(C3)C2C(=O)O)n1 (stereo not drawn),3.5%
2,CCCCOc1c(Br)cc(CNCCCN2CCOCC2)cc1OC.Cl,6.48%
3,CCn1c(SCc2nc(-c3ccccc3)no2)nnc1-c1ccco1,-24.7%
4,CCOC(=O)Cc1csc(NC(=O)COc2ccc(N(C)S(=O)(=O)c3cccs3)cc2)n1,-3.03%
5,Cc1c(C(=O)Nc2cccc([N+](=O)[O-])c2)sc2ncn(CC(=O)N3CCOCC3)c(=O)c12,14.1%
6,COc1cc(Cl)ccc1OCc1cc(C(=O)NCc2cc(C(C)C)no2)no1,7.81%
7,CC(=O)Nc1cccc(NC(=O)C2CCCN2C(=O)Nc2ccc(C)cc2)c1 (stereo not drawn),14.8%
8,CC(=O)NCc1ccc(C(=O)CCl)s1,7.93%
9,COc1cc2cnc(-c3ccccc3)c(-c3cc(OC)c(OC)c(OC)c3)c2cc1OC,14.7%
10,Cc1ccc2[nH]c(CNC(=O)C3CCCCC3)cc2c1,13.6%
11,CC(C)C[C@H](NC(=O)c1nc[nH]c1C(=O)NCCCCCNC(=O)OC(C)(C)C)C(=O)OCc1ccccc1,8.46%
12,Nc1nn2cc(-c3ccccc3)nc2c2ccccc12,-4.86%
13,Cn1cnc2c1c(=O)n(CC(O)CO)c(=O)n2C (stereo not drawn),20.3%
14,Cc1ccc(NC(=O)NNC(=O)COc2ccc([N+](=O)[O-])cc2)cc1C,3.75%
15,O=C(O)c1ccc(/C=N/Nc2nc3ccccc3[nH]2)cc1,5.23%
16,CCOC(=O)C1C(=O)NC(N2CCN(Cc3ccccc3)CC2)=NC1c1ccco1 (stereo not drawn),5.75%
17,Cc1ccc(C2=NOC(C)(c3nnc(-c4ccc(F)cc4)o3)C2)cc1 (stereo not drawn),3.83%
18,CN(Cc1ccccc1)C(=O)c1c[nH]c2ccc(S(=O)(=O)N3CCOCC3)cc2c1=O,4.14%
19,FC(F)(F)c1nc(N2CCCC2)ncc1-c1nnnn1-c1ccccc1,12.8%
20,CCn1c(CSCc2ccc(F)cc2)nnc1SCC(=O)N1CCN(c2ccccc2)CC1,-14.8%
21,CC(C)(C)[C@H]1C=C(C(=O)N2CCN(Cc3ccc4c(c3)OCO4)CC2)O[C@@H](OCc2ccc(CO)cc2)C1,-2.12%
